# Experimental data from the supplement of paper PMC10037445.
# Whole data set: some 2,900 compounds, median “IRF Lucia reporter activity, fold change vs agonist alone” near 0.9, cut for the highest 2% near 2.8. The list shows a part of the results.
# Legend:
# RAW-Dual [1] = assay: IRF Lucia reporter activity, fold change vs agonist alone; cytotoxicity flag (confluency mask): not cytotoxic; higher = enhanced IRF activity
# Summary of the method: (§1)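 RAW-Dual macrophages (50,000 cells/well in DMEM, 384-well plates) received 50 nL of library stock by pin tool, then a PRR agonist 1 h later, and were kept at 37 °C, 5% CO2. After 20 hours, supernatant was read for IRF by QuantiLuc luminescence and for NF-κB by QuantiBlue absorbance at 620 nm. Reporter activity is fold change over agonist-alone wells. Cytotoxic wells had IncuCyte confluency below 70% of agonist controls in both mask sets.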
# RAW-Dual [2] = assay: IRF Lucia reporter activity, fold change vs agonist alone; higher = enhanced IRF activity; conditions: agonist: MPLA (TLR4) […]
# Summary of the method: as §1
# RAW-Dual [3] = assay: IRF Lucia reporter activity, fold change vs agonist alone; cytotoxicity flag (confluency mask): cytotoxic (confluency <70% of control); higher = enhanced IRF activity
# Summary of the method: as §1
# [4] = agonist: 3'3'-cGAMP (STING) 10 ug/mL
# [5] = library stock concentration (final ~1000-fold dilution): 10 mM, cytotoxicity flag (confluency mask): not cytotoxic
structure (smiles),measurement,setting,value
CCn1c(-c2nonc2N)nc2c(C#CC(C)(C)O)ncc(OCC3CCCNC3)c21 (centres undefined) (library stock concentration (final ~1000-fold dilution): 10 mM),IRF Lucia reporter activity,RAW-Dual [1]; [4],0.017
same,IRF Lucia reporter activity,RAW-Dual [1]; agonist: LPS (TLR4) 0.1 ug/mL,0.0522
CCn1c(-c2nonc2N)nc2c(C#CC(C)(C)O)ncc(OCC3CCCNC3)c21 (centres undefined),IRF Lucia reporter activity,RAW-Dual [2]; [5],0.0565
Cl.c1ccc2c(-c3cnn4cc(-c5ccc(N6CCNCC6)cc5)cnc34)ccnc2c1,IRF Lucia reporter activity,"RAW-Dual [2]; library stock concentration (final ~1000-fold dilution): 10 mM water, cytotoxicity flag (confluency mask): not cytotoxic",1.21
Cl.c1ccc2c(-c3cnn4cc(-c5ccc(N6CCNCC6)cc5)cnc34)ccnc2c1 (library stock concentration (final ~1000-fold dilution): 10 mM water),IRF Lucia reporter activity,RAW-Dual [1]; [4],0.607
same,IRF Lucia reporter activity,RAW-Dual [1]; agonist: LPS (TLR4) 0.1 ug/mL,0.687
O=[N+]([O-])c1ccc(Nc2ccccc2-c2ccccc2)c2nonc12 (library stock concentration (final ~1000-fold dilution): 10 mM),IRF Lucia reporter activity,RAW-Dual [1]; [4],0.785
same,IRF Lucia reporter activity,RAW-Dual [1]; agonist: LPS (TLR4) 0.1 ug/mL,0.968
C[N+](C)(C)CC(O)CC(=O)O (centres undefined) (library stock concentration (final ~1000-fold dilution): 10 mM),IRF Lucia reporter activity,RAW-Dual [1]; [4],0.854
same,IRF Lucia reporter activity,RAW-Dual [1]; agonist: LPS (TLR4) 0.1 ug/mL,0.93
COc1nc2ccc(Br)cc2cc1C(c1ccccc1)C(O)(CCN(C)C)c1cccc2ccccc12.O=C(O)/C=C/C(=O)O (centres undefined),IRF Lucia reporter activity,RAW-Dual [2]; [5],0.751
COc1nc2ccc(Br)cc2cc1C(c1ccccc1)C(O)(CCN(C)C)c1cccc2ccccc12.O=C(O)/C=C/C(=O)O (centres undefined) (library stock concentration (final ~1000-fold dilution): 10 mM),IRF Lucia reporter activity,RAW-Dual [1]; [4],0.888
same,IRF Lucia reporter activity,RAW-Dual [1]; agonist: LPS (TLR4) 0.1 ug/mL,0.812
CC(N)C12CC3CC(CC(C3)C1)C2.Cl (centres undefined) (library stock concentration (final ~1000-fold dilution): 10 mM),IRF Lucia reporter activity,RAW-Dual [1]; [4],1.14
same,IRF Lucia reporter activity,RAW-Dual [1]; agonist: LPS (TLR4) 0.1 ug/mL,0.892
CC(N)C12CC3CC(CC(C3)C1)C2.Cl (centres undefined),IRF Lucia reporter activity,RAW-Dual [2]; [5],0.976
O=[N+]([O-])c1ccc(S(=O)(=O)N2CCN(c3ccnc4cc(Cl)ccc34)CC2)c([N+](=O)[O-])c1 (library stock concentration (final ~1000-fold dilution): 10 mM),IRF Lucia reporter activity,RAW-Dual [3]; [4],0.0178
same,IRF Lucia reporter activity,RAW-Dual [3]; agonist: LPS (TLR4) 0.1 ug/mL,0.0517
Cc1c(CN2CCC(Nc3ncnc4sc(CC(F)(F)F)cc34)CC2)ccc2[nH]c(C#N)cc12 (library stock concentration (final ~1000-fold dilution): 10 mM),IRF Lucia reporter activity,RAW-Dual [1]; [4],0.265
same,IRF Lucia reporter activity,RAW-Dual [1]; agonist: LPS (TLR4) 0.1 ug/mL,0.691
O=[N+]([O-])c1ccc(Sc2cccc[n+]2[O-])c2nonc12 (library stock concentration (final ~1000-fold dilution): 10 mM),IRF Lucia reporter activity,RAW-Dual [3]; [4],0.262
same,IRF Lucia reporter activity,RAW-Dual [3]; agonist: LPS (TLR4) 0.1 ug/mL,0.0128
O=C1NC(=O)C(c2cn3c4c(cccc24)CCC3)C1c1c[nH]c2ccccc12 (centres undefined),IRF Lucia reporter activity,RAW-Dual [2]; [5],1.84
O=C1NC(=O)C(c2cn3c4c(cccc24)CCC3)C1c1c[nH]c2ccccc12 (centres undefined) (library stock concentration (final ~1000-fold dilution): 10 mM),IRF Lucia reporter activity,RAW-Dual [1]; [4],0.237
same,IRF Lucia reporter activity,RAW-Dual [1]; agonist: LPS (TLR4) 0.1 ug/mL,1.25
NC(=O)c1ccc(I)c([N+](=O)[O-])c1,IRF Lucia reporter activity,RAW-Dual [2]; [5],0.87
NC(=O)c1ccc(I)c([N+](=O)[O-])c1 (library stock concentration (final ~1000-fold dilution): 10 mM),IRF Lucia reporter activity,RAW-Dual [1]; [4],0.75
same,IRF Lucia reporter activity,RAW-Dual [1]; agonist: LPS (TLR4) 0.1 ug/mL,1.01
CC(C)c1nc(N(C)S(C)(=O)=O)nc(-c2ccc(F)cc2)c1/C=C/C(O)CC(O)CC(=O)O (centres undefined),IRF Lucia reporter activity,RAW-Dual [2]; [5],0.953
CC(C)c1nc(N(C)S(C)(=O)=O)nc(-c2ccc(F)cc2)c1/C=C/C(O)CC(O)CC(=O)O (centres undefined) (library stock concentration (final ~1000-fold dilution): 10 mM),IRF Lucia reporter activity,RAW-Dual [1]; [4],0.669
same,IRF Lucia reporter activity,RAW-Dual [1]; agonist: LPS (TLR4) 0.1 ug/mL,1.16
CCOc1ccc2nc(S(N)(=O)=O)sc2c1,IRF Lucia reporter activity,RAW-Dual [2]; [5],1.03
CCOc1ccc2nc(S(N)(=O)=O)sc2c1 (library stock concentration (final ~1000-fold dilution): 10 mM),IRF Lucia reporter activity,RAW-Dual [1]; [4],1.03
same,IRF Lucia reporter activity,RAW-Dual [1]; agonist: LPS (TLR4) 0.1 ug/mL,1.07
COC(=O)c1ccc(O)c(OC)c1 (library stock concentration (final ~1000-fold dilution): 10 mM),IRF Lucia reporter activity,RAW-Dual [1]; [4],0.836
same,IRF Lucia reporter activity,RAW-Dual [1]; agonist: LPS (TLR4) 0.1 ug/mL,1.1
CS(=O)(=O)c1ccc(-c2nnc(/C=C/c3nnc(-c4ccc(C#N)cc4)o3)n2-c2ccccc2Cl)nc1 (library stock concentration (final ~1000-fold dilution): 10 mM),IRF Lucia reporter activity,RAW-Dual [1]; [4],0.734
same,IRF Lucia reporter activity,RAW-Dual [1]; agonist: LPS (TLR4) 0.1 ug/mL,0.946
CS(=O)(=O)c1ccc(-c2nnc(/C=C/c3nnc(-c4ccc(C#N)cc4)o3)n2-c2ccccc2Cl)nc1,IRF Lucia reporter activity,RAW-Dual [2]; [5],0.824
CN(C)CCC(c1ccc(Cl)cc1)c1ccccn1.O=C(O)/C=C\C(=O)O (centres undefined),IRF Lucia reporter activity,RAW-Dual [2]; [5],0.725
CN(C)CCC(c1ccc(Cl)cc1)c1ccccn1.O=C(O)/C=C\C(=O)O (centres undefined) (library stock concentration (final ~1000-fold dilution): 10 mM),IRF Lucia reporter activity,RAW-Dual [1]; [4],1.01
same,IRF Lucia reporter activity,RAW-Dual [1]; agonist: LPS (TLR4) 0.1 ug/mL,0.973
COc1cc2c(cc1OC(C)C)C(c1ccc(Cl)cc1)N(c1ccc(N(C)CC3CCC(N4CCN(C)C(=O)C4)CC3)cc1)C(=O)C2 (centres undefined) (library stock concentration (final ~1000-fold dilution): 10 mM),IRF Lucia reporter activity,RAW-Dual [1]; [4],0.135
same,IRF Lucia reporter activity,RAW-Dual [1]; agonist: LPS (TLR4) 0.1 ug/mL,1.35
COc1cc2ncnc(Nc3cccc(Cl)c3)c2cc1OC (library stock concentration (final ~1000-fold dilution): 10 mM),IRF Lucia reporter activity,RAW-Dual [3]; [4],0.306
same,IRF Lucia reporter activity,RAW-Dual [3]; agonist: LPS (TLR4) 0.1 ug/mL,0.352
COc1cc2ncnc(Nc3cccc(Cl)c3)c2cc1OC,IRF Lucia reporter activity,"RAW-Dual [2]; library stock concentration (final ~1000-fold dilution): 10 mM, cytotoxicity flag (confluency mask): cytotoxic (confluency <70% of control)",0.437
O=c1oc2cc(O)ccc2s1,IRF Lucia reporter activity,RAW-Dual [2]; [5],0.999
O=c1oc2cc(O)ccc2s1 (library stock concentration (final ~1000-fold dilution): 10 mM),IRF Lucia reporter activity,RAW-Dual [1]; [4],0.996
same,IRF Lucia reporter activity,RAW-Dual [1]; agonist: LPS (TLR4) 0.1 ug/mL,1.06
O=C(O)c1ccccc1O,IRF Lucia reporter activity,RAW-Dual [2]; [5],1.16
O=C(O)c1ccccc1O (library stock concentration (final ~1000-fold dilution): 10 mM),IRF Lucia reporter activity,RAW-Dual [1]; [4],1.08
same,IRF Lucia reporter activity,RAW-Dual [1]; agonist: LPS (TLR4) 0.1 ug/mL,1.46
CCN(CC)CCOC(=O)c1ccc(N)cc1.Cl (library stock concentration (final ~1000-fold dilution): 10 mM),IRF Lucia reporter activity,RAW-Dual [1]; [4],1.05
same,IRF Lucia reporter activity,RAW-Dual [1]; agonist: LPS (TLR4) 0.1 ug/mL,1.3
CCN(CC)CCOC(=O)c1ccc(N)cc1.Cl,IRF Lucia reporter activity,RAW-Dual [2]; [5],1.15
Cc1cc2c(s1)Nc1ccccc1N=C2N1CCN(C)CC1 (library stock concentration (final ~1000-fold dilution): 10 mM),IRF Lucia reporter activity,RAW-Dual [1]; [4],0.864
same,IRF Lucia reporter activity,RAW-Dual [1]; agonist: LPS (TLR4) 0.1 ug/mL,1.03
Cc1cc2c(s1)Nc1ccccc1N=C2N1CCN(C)CC1,IRF Lucia reporter activity,RAW-Dual [2]; [5],0.957
